Data reported in PubChem BioAssay AID588453 (National Center for Advancing Translational Sciences (NCATS), 2011).
Values joined by “and” are separate entries in the source; they are usually repeats but may differ in a detail not shown here. Equal values may be shown once. Screen size: about 390,000 compounds; about 4,000 (1%) were called active. This list was built around the results that the source calls inconclusive (neither active nor inactive); the mix of calls is not that of the screen. Calls come from the whole dose curve; as a rule, active = well fitted inhibition curve with a large enough effect; inconclusive = small, poorly fitted or top-dose-only effect; inactive = no such curve, though single readings can be large or run the other way. Where the call is inconclusive, the potency comes from a doubtful curve fit.

The molecules below were run against Thioredoxin reductase 1, cytoplasmic (Rattus norvegicus) (UniProt O89049) (assay: qHTS Assay for Inhibitors of Mammalian Selenoprotein Thioredoxin Reductase 1 (TrxR1): qHTS). Settings: recombinant rTrxR1, NADPH fluorescence consumption, selenite substrate; series mostly up to 114 µM.
UniProt O89049, sequence (O89049 whole entry, looked up): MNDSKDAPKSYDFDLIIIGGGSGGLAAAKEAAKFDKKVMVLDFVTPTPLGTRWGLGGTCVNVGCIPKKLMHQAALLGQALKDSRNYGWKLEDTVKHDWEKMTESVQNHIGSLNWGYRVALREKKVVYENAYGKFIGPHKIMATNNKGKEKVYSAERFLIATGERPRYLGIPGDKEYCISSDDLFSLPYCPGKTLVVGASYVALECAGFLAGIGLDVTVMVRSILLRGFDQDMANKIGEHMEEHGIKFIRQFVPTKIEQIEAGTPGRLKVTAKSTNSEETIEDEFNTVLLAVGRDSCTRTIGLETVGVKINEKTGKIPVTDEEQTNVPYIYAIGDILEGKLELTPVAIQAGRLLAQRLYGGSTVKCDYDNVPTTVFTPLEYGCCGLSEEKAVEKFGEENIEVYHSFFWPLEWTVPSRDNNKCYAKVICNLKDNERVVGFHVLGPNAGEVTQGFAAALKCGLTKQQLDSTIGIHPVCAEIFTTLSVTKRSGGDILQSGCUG
How it was run: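 Rat TrxR1 (90 nM in the dispensed reagent) was pre-reduced with 400 uM NADPH for 5 min at room temperature, then incubated with compound for 15 min. After 400 uM selenite was added, NADPH fluorescence (Ex 340/Em 450 nm) was followed for 8 min.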
Note: nearly all actives have a fitted effect of over 65% in size.
Potency is the fitted concentration of half-maximal effect; tags give direction and shape of the fitted curve.

| SMILES | Potency |
| --- | --- |
| CSc1ccc(Cl)c(C(=O)OCC(=O)NCc2ccco2)c1 | inconclusive: 63.1 µM [inhibitor, single point] |
| CCCCC/C=C\C/C=C\C/C=C\CCCCC(=O)O | inconclusive: 70.8 µM [inhibitor, partial curve] |
| COc1ccc(NS(=O)(=O)c2ccc(NC(=S)NC(=O)c3cccc(F)c3)cc2)nn1 | inconclusive: 50.1 µM [inhibitor, partial curve] |
| COc1ccc(CCNc2nc(=S)[nH]c3cc(OC)c(OC)cc23)cc1OC | inactive |
| Cc1ccc(S(=O)(=O)N(C)C)cc1NC(=S)NC1CCCC(C)C1C (stereo unspecified) | inconclusive: 50.1 µM [inhibitor, partial curve] |
| O=C(Nc1ccccc1)Nc1cc(S(=O)(=O)N2CCOCC2)ccc1N1CCCC1 | inactive |
| O=S(=O)(c1ccc2ccccc2c1)N1CCN(C(=S)Nc2ccc(F)c(Cl)c2)CC1 | inactive |
| C=CCOc1cccc(C2C(C(=O)c3ccc(C)o3)=C(O)C(=O)N2CCN(C)C)c1 (stereo unspecified) | inconclusive: 56.2 µM [inhibitor, partial curve] |
| Clc1ccc(C(c2ccccc2Cl)C(Cl)Cl)cc1 (stereo unspecified) | inconclusive: 63.1 µM [inhibitor, partial curve, poor fit] and inconclusive: 67 nM [inhibitor, full curve, poor fit] |
| CCC(=O)NC(=S)Nc1ccc(NC(=O)c2ccc(Br)o2)cc1 | inconclusive: 31.6 µM [inhibitor, full curve, poor fit] |
| Cc1ccc(CN(Cc2ccco2)C(=O)c2oc3c(C)c(C)ccc3c2C)cc1 | inconclusive: 14.1 µM [inhibitor, full curve] |
| CCCCC(C)n1[nH]c(=O)cc1N (stereo unspecified) | inconclusive: 44.7 µM [inhibitor, partial curve] |
| O=C(Nc1ccc(-c2nc3cccnc3s2)cc1)c1ccc(Br)o1 | inconclusive: 39.8 µM [inhibitor, single point] |
| COc1cccc(N(CC(=O)N2CCC(C)CC2)S(=O)(=O)c2ccc(C)cc2)c1 | inactive |
| CN1CCN(C(=O)Nc2ccc([N+](=O)[O-])cc2)CC1 | inconclusive: 89.1 µM [inhibitor, single point] |
| COc1ccc(N2CCN(C(=O)CCS(=O)(=O)c3ccc(C)cc3)CC2)cc1 | inconclusive: 79.4 µM [inhibitor, single point] |
| COC(=O)c1ccccc1NC(=O)c1cnn2c1NC(=C1CC1)C=C2C(F)F | inconclusive: 89.1 µM [inhibitor, single point] |
| O=C(NC1CCCCC1)c1ccc(-c2ccc(Cl)cc2)o1 | inconclusive: 17.8 µM [inhibitor, partial curve] |
| COCCn1c(SCC(=O)c2ccc(Cl)cc2)nnc1C(C)C | active: 6.31 µM |
| COc1ccc(NC(=O)CSc2nc(-c3ccccc3)nc3c2Cc2c(CO)cnc(C)c2O3)cc1Cl | inconclusive: 44.7 µM [inhibitor, partial curve, poor fit] |
| CC(Nc1ccc(-c2nc(-c3ccccn3)no2)cc1[N+](=O)[O-])c1ccccc1 (stereo unspecified) | inactive |
| Cc1ccc(-c2nc(=S)c3c(n2Cc2ccco2)CC(C)(C)OC3)cc1 | inconclusive: 1.12 µM [inhibitor, partial curve, poor fit] |

| SMILES | Potency |
| --- | --- |
| Cc1ccc(S(=O)(=O)N2CCCN(C)CC2)cc1 | active: 28.2 µM |
| COc1ccc(S(=O)(=O)N2CCN(CC(=O)Nc3ccc(C)c(F)c3)CC2)cc1 | inconclusive: 89.1 µM [inhibitor, single point] |
| CCCc1cc(C(=O)Cc2ccc(C(=O)OCC)o2)c(O)cc1O | inconclusive: 25.1 µM [inhibitor, single point] |
| COc1ccc(CNC(=O)CS(=O)Cc2nc(-c3ccccc3C)oc2C)cc1 (stereo unspecified) | inconclusive: 20 µM [inhibitor, partial curve, poor fit] |
| O=C(/C=C/c1ccc2c(c1)OCO2)NCc1ccco1 | inconclusive: 35.5 µM [inhibitor, partial curve] |
| CCCOc1ccc(CCc2n[nH]c(=S)n2-c2ccccc2)cc1 | inactive |
| O=C(Nc1ccc2[nH]c(=S)sc2c1)Nc1ccccc1F | inconclusive: 10 µM [inhibitor, partial curve] |
| CN(C)S(=O)(=O)c1cccc(-c2nn(-c3ccccc3)cc2/C=C2\SC(=S)NC2=O)c1 | inactive |
| CCCc1cc(=O)oc2c(CN3CCCC3)c(O)ccc12 | inconclusive: 63.1 µM [inhibitor, single point] |
| N#C/C(=C\c1cccc([N+](=O)[O-])c1)C(=O)NCc1cccnc1 | inconclusive: 50.1 µM [inhibitor, partial curve] |
| COc1cc(/C=C2/C(=O)c3cccc([N+](=O)[O-])c3C2=O)c(Br)cc1O | active: 28.2 µM |
| Oc1c(Cl)cc(Cl)cc1C=Nc1ccc(Br)cc1 | inconclusive: 0.794 µM [inhibitor, full curve] |
| CC1Cc2cc(/C(O)=C3/C(=O)C(=O)N(CCCN4CCOCC4)C3c3ccc(C(C)C)cc3)ccc2O1 (stereo unspecified) | inconclusive: 70.8 µM [inhibitor, partial curve] |
| CC(C)CCNc1nc(-c2ccco2)c2c(c1C#N)CCCC2 | inconclusive: 28.2 µM [inhibitor, single point] |
| CN1CC=C2C(C#N)=C(N)C(C#N)(C#N)C(CCc3ccccc3)C2C1 (stereo unspecified) | inconclusive: 25.1 µM [inhibitor, partial curve] |
| Cc1c(C(=O)N2CCOCC2)sc(NC(=O)CCl)c1C#N | inconclusive: 56.2 µM [inhibitor, partial curve] |
| CCSc1nc(=S)cc(C)[nH]1 | inconclusive: 3.16 µM [inhibitor, partial curve, poor fit] |
| Cc1c(Cl)c(C(F)F)nn1CC(=O)NC1C(=O)N2C(C(=O)O)=C(CSc3nnnn3C)CSC12 (stereo unspecified) | inconclusive: 56.2 µM [inhibitor, partial curve, poor fit] |
| COC(=O)CN1C(=S)N(c2ccc(OC)cc2)C(=O)/C1=C/c1ccc(OC)cc1 | inactive |
| CSc1nc(-c2ccccc2)[nH]c(=S)c1C(C)=O | inconclusive: 10 µM [inhibitor, full curve, poor fit] |
| COc1ccc2c(COC(=O)c3n[nH]c4ccccc34)cc(=O)oc2c1 | inactive |
| CCOC(=O)C1=C(N)OC2=C(C(=O)CC(C)C2)C1c1cccnc1 (stereo unspecified) | inconclusive: 39.8 µM [inhibitor, partial curve, poor fit] |

| SMILES | Potency |
| --- | --- |
| Cc1ccc(C)c(SCC(=O)OCC(=O)c2ccco2)c1 | inconclusive: 79.4 µM [inhibitor, single point] |
| Cc1cc(C)c(C(=O)/C=C/c2ccco2)c(=O)[nH]1 | inconclusive: 28.2 µM [inhibitor, single point] |
| COc1ccc(CN2CCNC(=O)C2CC(=O)NCC2CCOCC2)c(F)c1 (stereo unspecified) | inconclusive: 89.1 µM [inhibitor, single point] |
| CCN(CC)CCOC(=O)c1cccc2c1-c1ccccc1C2O (stereo unspecified) | inconclusive: 89.1 µM [inhibitor, partial curve, poor fit] |
| COc1cc(C(=S)N2CCN(C(c3ccccc3)c3ccccc3)CC2)cc(OC)c1O | inactive |
| COc1cc(OC)c(NC(=S)Nc2cc(Cl)cc(Cl)c2)cc1Cl | inactive |
| Cc1c(CBr)[n+](=O)c2c(n1[O-])C(Br)CCC2Br (stereo unspecified) | inconclusive: 22.4 µM [inhibitor, single point] |
| Cc1ccc(C2NC(=O)CCC2[N+](=O)[O-])cc1 (stereo unspecified) | inactive |
| CCCCOCCCNC(=S)Nc1ccc(S(=O)(=O)N2CCOCC2)cc1 | inconclusive: 7.94 µM [inhibitor, partial curve, poor fit] |
| O=[N+]([O-])c1cc(C2Nc3cccc4cccc(c34)N2)ccc1Cl | inconclusive: 89.1 µM [inhibitor, single point] |
| CCOC(=O)c1sc2nc3c(SCC(=O)O)cc(C(=O)c4cc(F)ccc4O)cn3c(=O)c2c1C | inactive |
| COc1ccc(CNC(=O)C2CCNCC2)cc1 | inconclusive: 44.7 µM [inhibitor, partial curve] |
| COc1ccc(CNC(=O)[C@H](Cc2ccccc2)NC(=O)C2CCNCC2)cc1 | inconclusive: 50.1 µM [inhibitor, partial curve, poor fit] |
| C=CCNC(=O)/C(C#N)=C/c1ccccc1OCc1ccc(C(=O)OC)cc1 | inconclusive: 89.1 µM [inhibitor, single point] |
| Cc1cccc[n+]1C1C(c2ccc([N+](=O)[O-])cc2)C(C#N)=C(C(=C=[N-])C#N)NC1(O)C1CC1 (stereo unspecified) | inconclusive: 56.2 µM [inhibitor, single point] |
| NS(=O)(=O)c1ccc(NC(=S)NC(=O)C2CCCC2)cc1 | inconclusive: 56.2 µM [inhibitor, single point] |
| O=[N+]([O-])c1ccc(O)c2ncccc12 | inconclusive: 70.8 µM [inhibitor, partial curve] |
| CC(C)(C)c1ccc(-c2noc(CCC(=O)NCc3ccco3)n2)cc1 | inactive |
| S=c1nc(-c2ccccc2)n(CCCN2CCOCC2)c2c1CCCC2 | inconclusive: 39.8 µM [inhibitor, single point] |
| Cc1cc(C)cc(NC(=O)CSc2ccc(-c3ccccn3)nn2)c1 | inactive |
| O=C(/C=C/c1ccc(Cl)cc1)NC(=S)Nc1ccccc1C(=O)O | inconclusive: 56.2 µM [inhibitor, partial curve] |
| NS(=O)(=O)c1ccc2nc(NC(=O)CS(=O)(=O)c3ccc(F)cc3)sc2c1 | inconclusive: 79.4 µM [inhibitor, partial curve, poor fit] |
